Results from the antibiotic and cytotoxicity screens of Wong et al. (2023).
The other results are listed elsewhere or left out.

How the values were obtained:
[1] = system: HSkMC (human skeletal muscle cells); assay: cytotoxicity call (relative viability < 0.9); conditions: 10 µM
[2] = system: HepG2; assay: cytotoxicity call (relative viability < 0.9); conditions: 10 µM
[3] = system: S. aureus RN4220; assay: growth inhibition call (relative growth <= 0.2); conditions: 50 µM

O=C(C[C@H]1C[C@@H]2c3cc(NC(=O)NC4CCCC4)ccc3O[C@@H]2[C@H](CO)O1)NCCN1CCCCC1
inactive: cytotoxicity call [1] | cytotoxicity call [2] | growth inhibition call [3]

C[C@@H]1CN([C@@H](C)CO)C(=O)c2cc(NC(=O)NC3CCCCC3)ccc2O[C@@H](C)CCCCO[C@H]1CN(C)Cc1ccc(C(=O)O)cc1
inactive: cytotoxicity call [1] | cytotoxicity call [2] | growth inhibition call [3]

O=S(=O)([O-])CCSSCCS(=O)(=O)[O-].[Na+].[Na+]
inactive: cytotoxicity call [1] | cytotoxicity call [2] | growth inhibition call [3]

CC(C)NC(=O)N(C)C[C@@H]1Oc2ccc(NS(=O)(=O)c3cn(C)cn3)cc2CC(=O)N([C@@H](C)CO)C[C@@H]1C
inactive: cytotoxicity call [1] | cytotoxicity call [2] | growth inhibition call [3]

COc1ccccc1S(=O)(=O)N[C@@H]1CC[C@@H](CCNC(=O)C2CC2)O[C@H]1CO
inactive: cytotoxicity call [1] | cytotoxicity call [2] | growth inhibition call [3]

C[C@@H]1CN([C@H](C)CO)C(=O)c2cccc(NC(=O)c3ccc(-c4nccs4)cc3)c2O[C@@H]1CN(C)Cc1ccc(-c2ccccc2)cc1
inactive: cytotoxicity call [1] | cytotoxicity call [2] | growth inhibition call [3]

COc1ccc(NC(=O)Nc2ccc3c(c2)C(=O)N([C@@H](C)CO)C[C@H](C)[C@H](CN(C)Cc2ccccc2)OCCCC[C@@H](C)O3)cc1
inactive: cytotoxicity call [1] | cytotoxicity call [2] | growth inhibition call [3]

Cc1noc(C)c1S(=O)(=O)N(C)C[C@H]1OCc2cn(nn2)CCCC(=O)N([C@@H](C)CO)C[C@@H]1C
inactive: cytotoxicity call [1] | cytotoxicity call [2] | growth inhibition call [3]

C[C@@H]1CCCCO[C@@H](CN(C)S(=O)(=O)c2cccs2)[C@@H](C)CN([C@H](C)CO)C(=O)c2cc(NC(=O)C3CCCCC3)ccc2O1
inactive: cytotoxicity call [1] | cytotoxicity call [2] | growth inhibition call [3]
